In paper PMC12136788:
This is one part of the list.

T1: UNK ZnF1-3 (human, UniProt Q9C0B0 31-174)
T1 sequence: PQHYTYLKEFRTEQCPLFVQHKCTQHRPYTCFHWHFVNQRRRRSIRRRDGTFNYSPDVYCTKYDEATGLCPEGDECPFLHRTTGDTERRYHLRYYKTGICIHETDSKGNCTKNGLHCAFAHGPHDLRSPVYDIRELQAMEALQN

B1: chr1:60041781:60041782:+_ENSMUSG00000041040_ENSMUST00000036540|mus_hu|mus_mus_mus_hu_False|38_38 (ssRNA)
RNA: GGGAGUUCUACAGUCCGACGAUCAAGUUUACAAUAGUAAAGUAAAUGCAGUAGUGGCAAAUUUUCUUUUAUUUUCCUUCACAAAAGAAAAUCUUUAGAUCUCAGUUCUAGUCUUGGACAUAGUGAAAGCUAUAAAUUCUGACUCAACAGAGGAUUGAGCAUCA
B2: chr2:152857951:152857952:+_ENSMUSG00000042631_ENSMUST00000037235|mus_mus|FALSE|FALSE (ssRNA)
RNA: GGGAGUUCUACAGUCCGACGAUCCUGACCCUGCAGGUAGUAGGAGGCCGCCAGCCACAGGUCGGUGGCGCCGUCGGAGAAGAACACGAGCAGCGCGCACAGCACCCAGCAGCAGUCCCGCAGCUCGUAGCGUGGCCCCGGGCACAACAGAGGAUUGAGCAUCA
B3: chr1:109605286:109605287:-_ENSG00000197780_ENST00000461096|hu_mus|hu_hu_hu_mus_True|1_1 (ssRNA)
RNA: GGGAGUUCUACAGUCCGACGAUCAAGUUUCAGAGUAACAUUCAGUAACCUCUUUAAAUGCAAUUAUCCUUAUUAUAAGCUAAGCAGAAUAAUAAUUUAAUACCGUAAGUGAACUACACACAAAGCCUGAACCGCGAAACUACACAACAGAGGAUUGAGCAUCA
B4: 30169689_30169809_76_3pUTR_ENSG00000139514_ENST00000380752|human|control|control (ssRNA)
RNA: GGGAGUUCUACAGUCCGACGAUCGGAGGCUGCGGUUAGCGGGAGCCCGCGGCCGCGUGCGCGCCUGCCAGGUAGUUGACCCGCUGCUCACACCUGCCUGCGCGGACUGAAUGGGCGCCGAGGGCUGGCGGGUUCCGGCGCCAGCAACAGAGGAUUGAGCAUCA
B5: chr8:98817645:98817646:+_ENSG00000104341_ENST00000445593|hu_hu|FALSE|FALSE (ssRNA)
RNA: GGGAGUUCUACAGUCCGACGAUCAAUGCACAUGUUGGCAUCAUCCAUGAACUCAAAGUCACCUCCCAGUUCAGAACUUGAAAAGUUAUACUGAUCCGGAUCAGCCAGGGCACUCAAUAAAAUCAACAGUACCACAGCAUUGAUCAACAGAGGAUUGAGCAUCA
B6: chr17:64801638:64801639:+_ENSG00000154229_ENST00000413366|hu_mus|hu_hu_hu_mus_False|8_68 (ssRNA)
RNA: GGGAGUUCUACAGUCCGACGAUCUAUAUAUAUAUAUACAUAUGUACACAUAUAUAGUAAAACCCUAAUCUAUCACGUAAAGUAGCCAUUCAUUUUUAAAAUUACAUCUACAUUAAAAAAUUAAUAUAUCUGAUACAGUGCCAGCAACAGAGGAUUGAGCAUCA

These binders were tested against T1, UNK ZnF1-3 (assay: nsRBNS (natural sequence RNA bind-n-seq); RBNS binding buffer (assumed for nsRBNS): 25 mM Tris pH 7.5, 150 mM KCl, 3 mM MgCl2, 0.01% Triton X-100, 500 ug/ml BSA, 20 U/ml SUPERase-In, 4 C; UNK is unkempt and MSI1 is Musashi-1; names of the RNAs are library labels; protein concentration not given here; high values mean tight binding).

Row | Binder | binding signal [enrichment R]
1 | B1 | 0.517
2 | B2 | 1.12
3 | B3 | 0.711
4 | B4 | 0.389
5 | B5 | 1.76
6 | B6 | 1.36
